According to PubChem BioAssay AID588778 (Southern Research Institute, 2011):
Values after ≈ are worked out from the molar mass of the structure shown. Some of the results follow. The main result of the screen is listed elsewhere. These columns were measured beside it and carry no call. Compounds called inactive in the main read-out are mostly missing here.

assay: Vibrio cholerae motility inhibitors, OD read-out (AID 588778); conditions: CC50: measured here: Vero cell cytotoxicity; IC50: measured here: V. cholerae viability alamarBlue; inhibition: measured here: bacterial viability at 10 ug/mL, stronger effect = higher value

Row | Compound | inhibition [%] | IC50 [µg/mL] | CC50 [µg/mL]
1 | O=C(CSc1ccccc1)Nc1cc(Cl)c(O)c(Cl)c1 | 26.8 | – | –
2 | O=C(c1ccc(Br)cc1)n1c(Cc2ccccc2)nc2ccccc21 | 27.4 | – | –
3 | N/C(=N\c1nc(C(F)(F)F)cc(C(F)(F)F)n1)Nc1ccc([N+](=O)[O-])cc1 | 37 | – | –
4 | CSc1ncc(C(=O)Nc2nccs2)cn1 | 24.4 | – | –
5 | O=[N+]([O-])c1nn(Cc2ccc(F)cc2)cc1Br | 53.3 | > 50 | –
6 | O=C1CCCC2=C1Sc1ccc(Cl)cc1N2 | 26.6 | – | –
7 | O=C(Nc1cccc(Cl)c1)Nc1ccc(N2CCOCC2)c(C(F)(F)F)c1 | 40.8 | – | –
8 | Nc1nc(NC(=O)c2ccco2)nn1-c1ccccc1 | 38.8 | > 50 | –
9 | O=[N+]([O-])c1cc(CN2CCOCC2)c2cccnc2c1O | 26.1 | – | –
10 | Cc1c(C=C(C#N)C#N)c(C)c([N+](=O)[O-])c(C)c1[N+](=O)[O-] | 23.3 | – | –
11 | CC(=O)Oc1ccccc1C(=O)NCCC1=CCCCC1 | -2.71 | – | –
12 | Cc1cccc(NC(=S)NC2CCCC2)n1 | -1.45 | – | –
13 | CCC(C(=O)Nc1ncn[nH]1)c1ccccc1 (stereo unspecified) | 0.36 | – | –
14 | CCOC(=O)c1ccc(NC(=S)NCCc2ccccc2F)cc1 | 8.79 | – | –
15 | CCCOc1ccc(CNC(=O)NCc2ccc(OC(C)C)cc2)cc1 | 7.48 | – | –
16 | Oc1cc(Oc2ccccc2)ccc1Cl | 34.4 | – | –
17 | Cc1cc(C)c(CCl)c(C)c1/C=N/Nc1ccc([N+](=O)[O-])cc1[N+](=O)[O-] | 7.46 | – | –
18 | CC(=O)Nc1cccc(NS(=O)(=O)Cc2ccc(Cl)cc2)c1 | 28 | – | –
19 | COCCCNC(=S)NNC(=O)c1ccccn1 | 32.2 | – | –
20 | O=c1cc(-c2ccccc2)nc(-c2ccccc2)o1 | 21.7 | – | –
21 | Cc1ccc(C)c(Nc2nc(NCCO)c3ccccc3n2)c1 | -0.74 | 25.8 (≈ 83.6 µM) | > 20
22 | O=C(c1c[nH]c2ccccc12)C(F)(F)F | 43.4 | – | –
23 | O=C(Nc1cccc(I)c1)C(Cl)Cl | 45.5 | – | –
24 | O=[N+]([O-])c1nn(Cc2c(F)cccc2Cl)cc1Cl | 25.9 | > 50 | –
25 | CC(=O)NC(c1ccc2c(c1)OCO2)c1ccc2cccnc2c1O (stereo unspecified) | 2.88 | – | –
26 | O=C(Nc1cc(Cl)ccc1O)C(c1ccccc1)c1ccccc1 | -1.05 | – | –
